Experimental data from PubChem BioAssay AID624173 (National Center for Advancing Translational Sciences (NCATS), 2012).
Screen size: about 410,000 compounds; about 490 (0.12%) were called active. This list was built around the results that the source calls inconclusive (neither active nor inactive); the mix of calls is not that of the screen. Calls come from the whole dose curve; as a rule, active = well fitted inhibition curve with a large enough effect; inconclusive = small, poorly fitted or top-dose-only effect; inactive = flat fitted curve, though single readings scatter. Potencies of inconclusive entries are doubtful fits and often do not repeat.

biological target: pyruvate kinase (Trypanosoma brucei) (UniProt Q57TT1); assay: qHTS of Trypanosoma Brucei Inhibitors; details: TbPYK enzyme, Kinase-Glo Plus ATP luminescence, 45 min; series mostly up to 76.8 µM; activity, negative = inhibition: at the top concentration; note: nearly all actives have a fitted effect of over 50% in size
Method in brief: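 T. brucei PYK with substrate was exposed to pin-transferred compounds across a concentration series, then started with 130 uM ADP (final). After 45 min at room temperature, Kinase-Glo Plus luminescence was read, normalized and curve-fitted.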
% is set by controls: 0 for no effect and ±100 for the full control effect; potency is the fitted concentration of half-maximal effect; tags give direction and shape of the fitted curve.

Structure (SMILES) | activity, negative = inhibition | Potency
Cn1c(=O)c([N+](=O)[O-])c(-n2ccnc2)c2ccccc21 | inactive: -4.88% | 
O=C(CCCc1ccccc1)c1ccccc1 | inactive: -14.8% | 
S=c1nc(-c2sccc2OCc2ccc(Cl)cc2Cl)[nH][nH]1 |  | inconclusive: 28.2 µM [inhibitor, partial curve, poor fit]
Cc1noc(C)c1S(=O)(=O)Nc1ccc2c(c1)C(=O)N([C@H](C)CO)C[C@@H](C)[C@@H](CN(C)Cc1ccc3c(c1)OCO3)O2 | inactive: -9.29% | 
CCN(CC)S(=O)(=O)c1ccc(O)c(NS(=O)(=O)c2ccccc2F)c1 |  | inconclusive: 28.2 µM [inhibitor, partial curve]
CN1CCC2(CC1)N=C(c1ccc(F)cc1)C(=S)N2C(=O)c1ccc(C(C)(C)C)cc1 |  | inconclusive: 35.5 µM [inhibitor, single point]
CC1(C)CC(=O)C(CC(=O)Nc2ccc(S(N)(=O)=O)cc2)=C(O)C1 | inactive: 3.09% | 
Cc1ccc(-c2csc3nnc(SCC(=O)Nc4nsc(-c5ccccc5)n4)n23)cc1 |  | inconclusive: 50.1 µM [inhibitor, single point]
COc1ccc(C(=O)Nc2ccc(CN3CCS(=O)(=O)CC3)cc2)cc1 | inactive: 3.02% | 
CCOC(=O)CSC1=C(C#N)C(c2ccc(F)cc2)C(C(C)=O)=C(C)N1 (configuration not stated) |  | inconclusive: 28.2 µM [inhibitor, partial curve]
COc1cccc(CNC2CN3CCC2CC3)c1OC (configuration not stated) |  | inconclusive: 50.1 µM [inhibitor, single point]
COc1ccc(CCn2c(-c3ccc(Cl)cc3)n[nH]c2=S)cc1OC |  | inconclusive: 10 µM [inhibitor, partial curve, poor fit]
Cc1ccc(Nc2nc(CSc3nnc(-c4ccncc4)n3-c3ccccc3C)cs2)cc1 |  | inconclusive: 14.1 µM [inhibitor, partial curve, poor fit]
O=C1CSC(=S)N1/N=C/c1ccc(O)c(O)c1O |  | inconclusive: 28.2 µM [inhibitor, partial curve, poor fit]
CCc1ccc(-n2c(SCC(=O)N3Cc4ccccc4CC3C(=O)O)nnc2-c2ccncc2)cc1 (configuration not stated) |  | inconclusive: 35.5 µM [inhibitor, partial curve]
O=C(Nc1nncs1)C1(c2ccccc2)CCCC1 |  | inconclusive: 25.1 µM [inhibitor, partial curve, poor fit]
CC(C)NC(=O)c1cc(-c2ccco2)nn1-c1ccc(Cl)cc1 |  | inconclusive: 50.1 µM [inhibitor, single point]
CCCN(CCC)C(=O)[C@@H](CCC(=O)O)NC(=O)c1ccccc1 | inactive: 0% | 
Cc1cc(C)nc(Sc2ccc(C=O)cc2[N+](=O)[O-])n1 | inactive: -5.52% | 
O=C(Nc1cnn(Cc2ccc(Cl)cc2)c1)c1cccs1 |  | inconclusive: 35.5 µM [inhibitor, partial curve]
O=C(Nc1cccc(O)c1)C(=O)Nc1ccccn1 |  | inconclusive: 31.6 µM [inhibitor, partial curve, poor fit]
CCn1c(-c2csc3c2CCCC3)n[nH]c1=S |  | inconclusive: 6.31 µM [inhibitor, full curve]
COc1ccc(CNC(=O)COC(=O)c2ccc3ncsc3c2)cc1OC |  | inconclusive: 39.8 µM [inhibitor, single point]

Structure (SMILES) | activity, negative = inhibition | Potency
c1ccc(OCCn2c(-c3ccco3)nc3ccccc32)cc1 |  | inconclusive: 28.2 µM [inhibitor, single point]
COc1ccc(C=NNC(=O)c2ccccc2NS(=O)(=O)c2cccs2)cc1O | inactive: 3.73% | 
[N-]=C=C1C(=S)NC(=O)[C@H]([n+]2ccccc2)[C@H]1c1ccc(Cl)cc1 |  | inconclusive: 20 µM [inhibitor, partial curve]
Cc1cc(C)c(S(=O)(=O)/N=C2\C=C(Nc3ccc(C(=O)O)cc3)C(=O)c3ccccc32)c(C)c1 |  | inconclusive: 35.5 µM [inhibitor, partial curve]
CC[C@H](C)[C@H](NC(N)=O)C(=O)OCC(=O)NCc1ccc(Cl)cc1 |  | inconclusive: 39.8 µM [inhibitor, single point]
CC(C)OC(=O)c1c(NS(=O)(=O)c2ccccc2)sc2c1CCCC2 |  | inconclusive: 20 µM [inhibitor, partial curve]
Cc1ccsc1/C=N/n1c(-c2cc(-c3ccccc3)n[nH]2)n[nH]c1=S |  | inconclusive: 2 µM [inhibitor, partial curve, poor fit]
O=C1CCCc2nc(N3CCN(C(c4ccccc4)c4ccccc4)CC3)ncc21 | inactive: -1.32% | 
CS(=O)(=O)N(Cc1nnc(-c2cccs2)o1)c1ccc(Cl)cc1F |  | inconclusive: 35.5 µM [inhibitor, single point]
COc1cccc(NC(=S)/C(=C(\[O-])c2ccc(C)c([N+](=O)[O-])c2)[n+]2ccccc2)c1 | inactive: -12% | 
COC(=O)C1=C(C)NC(C)=C(C(=O)OCC(C)=O)C1c1ccccc1[N+](=O)[O-] (configuration not stated) |  | inconclusive: 25.1 µM [inhibitor, partial curve]
NS(=O)(=O)c1ccc(NC(=S)NC2CCCCCC2)cc1 |  | inconclusive: 39.8 µM [inhibitor, partial curve, poor fit]
CC(C)(O)C1Cc2cc(/C=C/C(=O)O)c(O)cc2O1 (configuration not stated) |  | inconclusive: 25.1 µM [inhibitor, partial curve, poor fit]
Cc1ccc(-c2c3c(nc4sc(C(N)=O)c(N)c24)CCCC3)o1 |  | inconclusive: 11.2 µM [inhibitor, partial curve, poor fit]
O=C1Nc2cc(Cl)cnc2N2CCCC12 (configuration not stated) |  | inconclusive: 31.6 µM [inhibitor, single point]
Fc1ccc(C[n+]2csc3ccccc32)cc1 |  | inconclusive: 39.8 µM [inhibitor, partial curve, poor fit]
Cc1nn(-c2ccccc2)c(C)c1NC(=O)COC(=O)CCOc1ccccc1 |  | inconclusive: 31.6 µM [inhibitor, single point]
O=C1C=CC(=O)N1c1ccc(OC(F)F)cc1 |  | active: 11.2 µM
CCCNC(=O)c1nnsc1S(=O)c1ccc(Cl)cc1 (configuration not stated) | inactive: -12.5% | 
N#CC(C#N)=C1C=CC=CN1/C(=C\c1ccco1)C(=O)c1ccc(Br)cc1 |  | inconclusive: 31.6 µM [inhibitor, partial curve, poor fit]
Fc1ccccc1-c1n[nH]c(=S)n1/N=C/c1c[nH]c2ccccc12 |  | inconclusive: 2.51 µM [inhibitor, full curve, poor fit]
COc1cccc(C(=O)Nc2ccc(NC(=O)C3CC=CCC3C(=O)O)cc2)c1 (configuration not stated) | inactive: 7.31% | 
O=C(Nc1nnc(SCC(=O)N2CCCCC2)s1)C1CCCCC1 |  | inconclusive: 39.8 µM [inhibitor, single point]

Structure (SMILES) | activity, negative = inhibition | Potency
Cc1cc(C)c2c(=O)n(CC(=O)NCCCN3CCOCC3)sc2n1 |  | active: 6.31 µM
O=C(Nc1ccc(-c2nc3ccccc3[nH]2)cc1)C1CCCO1 (configuration not stated) |  | inconclusive: 50.1 µM [inhibitor, single point]
CCc1ccc(CNC(=O)C2CCCN(c3nn4cc(-c5ccc(F)cc5)nc4s3)C2)cc1 (configuration not stated) | inactive: -1.18% [at 15.4 µM] | 
Cc1ccc(-n2c3nc(=O)[nH]c(=O)c-3cc3cc([N+](=O)[O-])ccc32)cc1C |  | inconclusive: 22.4 µM [inhibitor, partial curve, poor fit]
COCCOc1ccc(C(F)(F)F)cc1Nc1nc2ccccc2o1 |  | inconclusive: 35.5 µM [inhibitor, single point]
O=C(COCc1cc(-c2cccs2)on1)NCc1ccccc1Cl | inactive: -2.3% | 
CCOC(=O)[C@]12Cc3cc4ccccc4cc3[C@H]1N(Cc1ccccc1)C(=O)c1cc(OC)ccc12 | inactive: 0.107% | 
Cc1snc(SCC(=O)c2ccc([N+](=O)[O-])cc2)c1C#N |  | active: 35.5 µM
CC(C)(C)C1CCc2c(sc(N)c2C(N)=O)C1 (configuration not stated) |  | inconclusive: 17.8 µM [inhibitor, partial curve, poor fit]
O=C(CCc1nnc2ccc(N3CCC4(CC3)OCCO4)nn12)Nc1ccc(F)cc1 |  | inconclusive: 35.5 µM [inhibitor, single point]
N#Cc1ccccc1NC(=O)COC(=O)c1ccc2c(c1)OCCO2 | inactive: 2.35% | 
CCOC(=O)CSc1nc(C)cc(C)c1C#N |  | inconclusive: 35.5 µM [inhibitor, single point]
Cc1ccc(C(=O)NC(=S)Nc2cccc3nsnc23)cc1 |  | inconclusive: 14.1 µM [inhibitor, partial curve, poor fit]
COc1cc(C)c(NC(=O)C(=S)NCCc2ccccc2)cc1C |  | inconclusive: 15.8 µM [inhibitor, partial curve]
N#C/C(=C\c1cccs1)C(=O)NCc1ccccc1 |  | inconclusive: 50.1 µM [inhibitor, single point]
O=C1NC(c2cccs2)Nc2ccccc21 (configuration not stated) |  | inconclusive: 50.1 µM [inhibitor, single point]
CCOc1ccc(N)c(SSc2cc(OCC)ccc2N)c1 |  | inconclusive: 17.8 µM [inhibitor, partial curve, poor fit]
O=C(O)c1cccc(NC2=C(N3CCOCC3)C(=O)c3ccccc3C2=O)c1 | inactive: -1.88% | 
Cc1cc(-c2n[nH]c(=S)n2/N=C/c2ccc(C)s2)n[nH]1 |  | inconclusive: 1.12 µM [inhibitor, full curve, poor fit]
CN1CCN(C(=S)NC(=O)c2ccc(C(C)(C)C)cc2)CC1 |  | inconclusive: 56.2 µM [inhibitor, partial curve, poor fit]
Cc1ccc(C)c(-n2c(-c3ccncc3)n[nH]c2=S)c1 |  | inconclusive: 2.24 µM [inhibitor, full curve, poor fit]
